Measured values taken from PMC4336329 (PLoS ONE, 2015).
Screen size: about 310,000 compounds; about 2,200 (0.71%) showed an effect of 50% or more. Effects have a minus sign here. This is one part of the list.

Molecular target: human ether-à-go-go-related gene (hERG) potassium channel (human, UniProt Q12809)
Assay: primary screen, population patch clamp on CHO cells stably expressing hERG

human ether-à-go-go-related gene (hERG) potassium channel, sequence (Q12809 whole entry, looked up): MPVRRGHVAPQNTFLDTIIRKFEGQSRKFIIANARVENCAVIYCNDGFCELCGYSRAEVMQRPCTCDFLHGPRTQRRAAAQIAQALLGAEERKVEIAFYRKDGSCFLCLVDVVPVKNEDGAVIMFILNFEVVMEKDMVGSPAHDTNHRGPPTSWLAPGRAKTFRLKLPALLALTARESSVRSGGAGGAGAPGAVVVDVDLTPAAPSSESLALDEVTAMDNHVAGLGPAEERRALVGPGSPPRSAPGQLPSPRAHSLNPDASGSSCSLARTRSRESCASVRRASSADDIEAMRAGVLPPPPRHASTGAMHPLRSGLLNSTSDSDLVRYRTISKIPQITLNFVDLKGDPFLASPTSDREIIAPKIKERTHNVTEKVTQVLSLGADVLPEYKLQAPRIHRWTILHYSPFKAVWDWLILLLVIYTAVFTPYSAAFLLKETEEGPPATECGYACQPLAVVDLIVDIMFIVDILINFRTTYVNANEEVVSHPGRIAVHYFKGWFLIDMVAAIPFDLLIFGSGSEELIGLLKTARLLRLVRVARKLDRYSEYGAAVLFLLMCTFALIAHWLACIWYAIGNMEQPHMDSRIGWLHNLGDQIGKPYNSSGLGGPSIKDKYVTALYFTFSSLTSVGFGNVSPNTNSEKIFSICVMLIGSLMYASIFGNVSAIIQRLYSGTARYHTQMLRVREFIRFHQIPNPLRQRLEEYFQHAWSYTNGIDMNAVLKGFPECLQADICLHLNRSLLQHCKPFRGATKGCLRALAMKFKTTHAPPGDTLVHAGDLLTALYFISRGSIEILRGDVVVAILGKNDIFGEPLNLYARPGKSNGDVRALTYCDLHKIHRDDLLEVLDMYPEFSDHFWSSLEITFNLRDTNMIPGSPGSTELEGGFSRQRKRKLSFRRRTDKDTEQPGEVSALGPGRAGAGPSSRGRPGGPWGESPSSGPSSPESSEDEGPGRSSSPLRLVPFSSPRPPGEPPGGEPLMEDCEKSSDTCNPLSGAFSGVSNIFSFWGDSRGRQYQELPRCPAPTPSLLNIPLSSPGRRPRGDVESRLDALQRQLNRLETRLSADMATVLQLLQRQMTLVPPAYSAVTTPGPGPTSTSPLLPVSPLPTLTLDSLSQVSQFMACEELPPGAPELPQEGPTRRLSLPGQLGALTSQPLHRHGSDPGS

| Structure (SMILES) | hERG current change (%, negative = inhibition) at 1uM |
| --- | --- |
| COc1ccccc1NC(=O)C1CCN(S(=O)(=O)c2ccc3c(c2)NC(=O)CO3)CC1 | 15.7% |
| CCn1nnnc1SCC(=O)Nc1nc2ccc(OC)cc2s1 | 7.19% |
| COc1ccc(CC(=O)Nc2cccc(-c3nnc(-c4cccc(C)c4)o3)c2)cc1OC | 16.9% |
| COc1nc(Nc2ccc([N+](=O)[O-])cc2)nc(NC2CCCCC2)n1 | 11.2% |
| CCCn1c(SCC(=O)NC2CC2)nnc1-c1ccccn1 | 5.68% |
| CC1CCC(C(C)C)C(OCC(O)CN2CCN(Cc3ccccc3)CC2)C1.Cl (stereo not shown) | -25.2% |
| CCCCn1c(O)c(N=NC(=O)c2ccccc2NS(=O)(=O)c2cccs2)c2ccccc21 | 10.7% |
| CCOC(=O)CC(NC(=O)C(CC)c1ccccc1)c1ccccc1Cl (stereo not shown) | 10.5% |
| COc1ccccc1OCc1csc(N)n1 | 9.14% |
| COc1ccc(-c2noc(CN(C)Cc3ccccc3)n2)cc1 | 9.28% |
| O=C(NCCN1CCOCC1)c1ccc(/C=C2\Sc3ccccc3N(Cc3ccccc3F)C2=O)cc1 | 12.3% |
| Cc1[nH]c2ccccc2c1C(=O)/C=C/c1ccccc1Cl | 14.6% |
| CCC1(O)CC(c2ccccc2)=NN1C(=O)c1ccccc1F (stereo not shown) | 12.6% |
| CCOC(=O)c1ccc(NC(c2ccc(N(C)C)cc2)P(=O)(OC(C)C)OC(C)C)cc1 (stereo not shown) | 8.88% |
| CC(c1ccncn1)N(C)Cc1nc(-c2ccc(C(F)(F)F)cc2)no1 (stereo not shown) | 13.6% |
| CC(C)c1c(O)nc(SCCN2CCOCC2)[nH]c1=O.Cl | 9.47% |
| CCC(C)(C(=O)NC1CCCCC1)N(CC1CCCO1)C(=O)c1ccccn1 (stereo not shown) | -80.8% |
| Cc1ccc(OCCN(C)C(=O)CC2C(=O)NCCN2CC(C)(C)C)cc1 (stereo not shown) | 9.6% |
| O=C(CCc1ccccc1)NNC(=O)c1ccccc1F | 0.134% |
| COc1cccc(C(=O)NCCS(=O)(=O)NCc2ccccn2)c1 | 9.36% |
| CC(C)C(NC(=O)OCc1ccccc1)C(=O)NC1CCCCC1 (stereo not shown) | 9.47% |
| O=C1N[C@@H](Cc2cn(S(=O)(=O)c3ccccc3)c3ccccc23)C(=O)N[C@H]1Cc1ccccc1 | 10.2% |

| Structure (SMILES) | hERG current change (%, negative = inhibition) at 1uM |
| --- | --- |
| CCCc1n[nH]c(=O)c2c1nnn2Cc1ccccc1F | 12% |
| Cc1nc2ccc(-c3nc4cc(N)ccc4o3)cc2[nH]1 | 12.5% |
| CCN(CC)S(=O)(=O)c1cc(C(=O)OCC(=O)Nc2c(F)cccc2F)ccc1F | 6% |
| OCC1(CCOc2ccccc2)CCN(Cc2ccc(OC(F)F)cc2)CC1 | -87.1% |
| Oc1ccc(C2=NNC(c3ccc(O)cc3)=NN2)cc1 | 1.9% |
| N#CCCN(C(=O)COC(=O)c1nc(Cl)ccc1Cl)c1ccccc1 | 9.21% |
| O=C(Cn1c(=O)cnc2ccccc21)Nc1cccc(S(=O)(=O)N2CCCCC2)c1 | 1% |
| C=CCn1c(O)c(/C=C2/C=c3ccccc3=N2)c(=O)[nH]c1=S | 19.1% |
| CCc1nccc2c1[nH]c1ccccc12 | 1.65% |
| CCc1ccccc1Oc1ccc(S(=O)(=O)N2CCN(C)CC2)cn1 | 2.87% |
| COc1ccccc1NS(=O)(=O)c1ccc(C)c(C(=O)NCc2cccnc2)c1 | -0.314% |
| COc1ccc(C(=O)NC(=S)Nc2ccc3oc(=O)ccc3c2)cc1[N+](=O)[O-] | 4.44% |
| C=CCNC(=O)c1nc2ccccc2s1 | -2.93% |
| COc1ccc(/C=N/N=C2/NC(=O)C(c3ccccc3)(c3ccccc3)S2)cc1 | 12.2% |
| COC(=O)CCN(C(=O)c1ccc2c(c1)OCO2)c1ccccn1 | 7.88% |
| O=C(CSc1nncs1)Nc1ccc2c(c1)OCCO2 | 15% |
| C=CCNC(=O)c1ccc(N(C)S(=O)(=O)c2ccc(OC)cc2)cc1 | -12.8% |
| O=C(NCc1ccco1)C1CCCN(S(=O)(=O)c2ccc(Br)cc2)C1 (stereo not shown) | 8.57% |
| COc1cc(/C=N/NC(=O)c2sc(N)c(C#N)c2C)cc(Br)c1O | 7.51% |
| CN(C)c1nc(=S)nc(NCc2ccccc2)[nH]1 | -4.71% |
| O=C1CCCC(O)=C1C=NCCc1ccccc1 | 5.37% |
| CCOC(=O)C1CCN(C(=O)C2CCCCC2)CC1 | 13.4% |

| Structure (SMILES) | hERG current change (%, negative = inhibition) at 1uM |
| --- | --- |
| CC(=O)Nc1c([N+](=O)[O-])cc(C)c(Cl)c1[N+](=O)[O-] | 14.4% |
| Cc1c(NC(=O)c2ccc(N(C)S(=O)(=O)c3ccccc3)cc2)c(=O)n(-c2ccccc2)n1C | 7.12% |
| Cc1cccc(C(C)C)c1NC(=O)C(C)OC(=O)Cn1cnc2c1c(=O)n(C)c(=O)n2C (stereo not shown) | 10.9% |
| COc1ccc(-n2cnnc2SCC(=O)N2CCN(c3ccccc3)CC2)cc1 | -15.6% |
| CC1CN(C(=O)COC(=O)c2ccccc2O)CC(C)O1 (stereo not shown) | 15.4% |
| Cc1cccc(NS(=O)(=O)c2cc3c4c(c2)CCC(=O)N4CCC3)c1 | 4.06% |
| CC(NCC(=O)Nc1ccccc1C(=O)NC1CC1)c1ccccc1Cl (stereo not shown) | 3.12% |
| CCN(CC)S(=O)(=O)c1cccc(C(=O)N[C@@H](C)c2nc3ccccc3[nH]2)c1 | 10.6% |
| Cc1ccc(N2C(=O)C3ON(c4ccccc4)C(CC(C)C)C3C2=O)cc1 (stereo not shown) | 9.2% |
| COc1ccc(C2/C=C\CN(S(=O)(=O)c3ccc(C)cc3)[C@H](Cc3ccccc3)C(=O)N2Cc2ccc(F)cc2)cc1 (stereo partly shown) | 6.38% |
| CSc1nsc(SC)c1C(=O)Nc1ccc(C)cc1 | 12.6% |
| COCCCN(C)C1CCN(C(=O)Nc2ccc(F)cc2)CC1 | -2.37% |
| CCCCCCCCCCSc1n[nH]c(N)n1 | 13.5% |
| O=C(O)CNC(=O)CC1S/C(=N/N=C/c2ccccc2O)NC1=O (stereo not shown) | -6.09% |
| c1ccc(CCNc2ncnc3c2nnn3Cc2ccccc2)cc1 | -2.59% |
| COc1ccc(OC)c2c1cc(C(=O)N[C@@H](C)C(=O)N[C@@H](C(=O)O)c1ccccc1)n2C | 15% |
| CCOc1ccc(NC(=O)Cn2nnc3c(cnn3-c3ccc(F)cc3)c2=O)cc1 | 18% |
| Cc1cc(Nc2ccc(F)cc2F)n2ncnc2n1 | 9.33% |
| CCOC(=O)CNC(=O)c1cccnc1Oc1ccc(Cl)cc1 | 13.1% |
| O=S(=O)(NCCCN1CCOCC1)c1ccc(Cl)s1 | 13.7% |
| CCOc1ccc2nc(NCCNC(=O)c3cc(OC)c(OC)c(OC)c3)c(C#N)cc2c1 | 9.95% |
| O=C(CCCN1C(=O)/C(=C/c2ccc(F)cc2)SC1=S)NC1CCS(=O)(=O)C1 (stereo not shown) | 17.7% |

| Structure (SMILES) | hERG current change (%, negative = inhibition) at 1uM |
| --- | --- |
| CC1CCN(c2nc3c(N)ncnc3n2[C@@H]2O[C@H](CO)[C@@H](O)[C@H]2O)CC1 | 18% |
| Clc1cccc(Cl)c1COc1ccccc1CNn1cnnc1 | 11.9% |
| COc1ccc2nc(SCC(=O)NCc3ccccc3)[nH]c2c1 | 10.5% |
| CC(C)(C)NC(=O)C(c1ccccc1)N(C(=O)CNC(=O)c1cccs1)c1cccnc1 (stereo not shown) | 8.51% |
| c1ccc(-c2nc(NCc3cccnc3)c3ccccc3n2)cc1 | 11.5% |
| CCC(C)(C)n1nnnc1C(c1cccs1)N1CCN(c2nc3ccccc3s2)CC1 (stereo not shown) | 13.2% |
| Cc1ccc(NC(=S)NNC(=O)c2ccc(N3CCOCC3)c([N+](=O)[O-])c2)cc1C | 12.9% |
| CCC(=O)Nc1c(-c2ccccc2Cl)c(=O)c2ccccc2n1CC | 11.5% |
| COc1ccc(C)cc1NC(=O)C(=O)NNC(=O)c1ccco1 | 12.3% |
| CCn1cc(CCC(=O)NCc2ccc(F)cc2)c2ccccc21 | 10.2% |
| COc1ccc(-n2c(/C=C/c3ccc(O)c(OC)c3)nc3ccccc3c2=O)cc1 | 10.4% |
| CCc1ccc(CNC(=O)c2ccc3c(c2)NC(=O)C(N2CCOCC2)S3)cc1 (stereo not shown) | 7.74% |
| O=c1c2c(n3cnnc3n1-c1ccccc1)-c1ccccc1CC21CCCCC1 | -2.98% |
| CCCCCN(C(=O)CCC(=O)OCC(=O)N(CC)c1ccccc1)c1c(N)n(CCCC)c(=O)[nH]c1=O | 7.91% |
| Cc1cccc(N(C(=O)c2cnc3n(c2=O)CCS3)C2CCCCC2)c1 | -0.574% |
| Cc1cc(SCC(=O)N/N=C/c2ccc(C(=O)O)cc2)nc2ccccc12 | 0.168% |
| CCn1cc(CN2CCC(n3nccc3NC(=O)c3ccc(OC)cc3)CC2)cn1 | 13% |
| COc1ccc(CNC(=O)C2CC=CCC2C(=O)O)cc1OC (stereo not shown) | 9.92% |
| Cc1cccc(OCC(=O)N2CCOCC2)c1 | 17.1% |
| Cc1cccc(C)c1NC(=O)CSc1nnnn1C | 4.84% |
| COc1ccc2nc(C)cc(N3CCN(S(=O)(=O)c4ccccc4F)CC3)c2c1 | -62.2% |
| Cn1c(CN2CCOCC2)nnc1SCC(N)=O | 15.8% |
